# Source: the supplement of paper PMC3334620
# Whole data set: some 33,000 sequences, median “E-score (-0.5 to 0.5)” near -0.056, cut for the highest 2% near 0.38. Some of the results follow.
# Target: Stb4 (UniProt P50104)
# Assay: PBM E-score (8-mer binding enrichment) (E-score (-0.5 to 0.5)); higher = stronger / more preferred TF binding; most listed sequences are background and not binding sites
# Conditions: protein concentration: 200 nM; construct: GST-DNA-binding domain
# In short: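 Masliner-normalised scans of fluorescent anti-GST signal were the basis for scoring. That signal came from GST-tagged yeast transcription factors applied at about 100-200 nM to double-stranded universal all-10-mer Agilent arrays on fresh or once-stripped slides. Each ungapped eight-base word, pooled with its reverse complement, received an E-score from the Universal PBM Analysis Suite.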
row,Sequence,PBM E-score
1,CACACCAA,0.0484
2,GCCACCAA,-0.238
3,ATGTCATA,-0.0715
4,CTGCTCCA,-0.151
5,TCGTCGAA,-0.33
6,AGCTTTTG,-0.112
7,GTTCTAGA,0.055
8,CACTAGGG,-0.332
9,GGACACAC,0.136
10,AGTACAAC,0.019
11,ACTCAGGG,-0.0932
12,CGAGCGCG,0.235
13,CCTAGTTC,-0.0435
14,CAATGCGG,0.0433
15,AAGTATAG,-0.0669
16,AGCCGCGC,0.182
17,AGAGCGTG,0.0442
18,CCATGACC,-0.123
19,ATGCGAAA,-0.0603
20,CTTATCTA,-0.0636
21,ACACAGGT,-0.37
22,ATAAGTAG,-0.157
23,AGTGGGAC,-0.0624
24,AGGTGGCC,-0.11
25,CACAAGGG,-0.193

row,Sequence,PBM E-score
1,AATGAAGA,-0.166
2,GGCCCGCA,0.151
3,CCTTCCAG,-0.252
4,AGATGCCA,-0.263
5,GGTCTCCA,-0.167
6,GAGTCTTA,-0.104
7,AATTACGA,-0.0893
8,CCTTGACG,-0.0355
9,AGGATCTA,-0.258
10,GGAAAAGA,0.0273
11,ATTACGGA,0.296
12,GGCCGCAC,-0.00613
13,AATCCCGT,0.303
14,TCGTAACA,0.0194
15,GATGTAAA,-0.182
16,AGAGGTAA,-0.00757
17,GATCCGAA,0.482
18,TATGATCA,-0.194
19,AGGGAAAC,-0.0995
20,ATGGAACA,-0.272
21,CACTAAAA,-0.1
22,CGTTAAAC,-0.127
23,CCCTTAGC,0.0903
24,CTCCTTGC,-0.268
25,GGCCGAAA,0.319

row,Sequence,PBM E-score
1,AACGAAGA,-0.134
2,AAACGGTC,0.0505
3,CCTATGGC,-0.183
4,AGAATGGG,-0.0976
5,GCCGCGCA,0.0339
6,ACTCAGGA,-0.137
7,AAAACGTG,-0.208
8,AAGATCGG,0.339
9,GCGGTAAC,0.178
10,CTCACTGA,-0.243
11,GGGCAGAC,-0.0126
12,CACCGGCC,0.0878
13,GGCAGTGA,0.0105
14,ACTTTCGA,-0.0194
15,GCGTACGC,0.0157
16,AAAAGTTA,-0.0852
17,AATCGGCA,0.32
18,CAAAAGAG,-0.0893
19,CCTACAGG,-0.142
20,TCTTTCCA,-0.0186
21,CCAGCCCG,0.0792
22,AAAGGTAA,-0.18
23,ATAACAAG,0.0631
24,CGATGGAC,0.0198
25,AATTCAAC,0.015

row,Sequence,PBM E-score
1,GACTACGC,-0.0939
2,ACTATCCG,0.45
3,CTCCGGAA,0.391
4,ATATTTGG,0.0131
5,CCGGCACA,0.307
6,ATATAAAA,0.0335
7,AGAGGCCG,-0.165
8,ACGGTTTA,-0.00687
9,ACTTATCT,-0.211
10,ATTGATGC,-0.0518
11,CGATCGAG,0.225
12,GCATAACA,-0.262
13,CACGAGAA,-0.167
14,CCATCGGA,0.369
15,CTCGTGAA,-0.127
16,GCGGTTAA,0.17
17,GACCTAGC,-0.118
18,GTGAACGA,-0.0944
19,GCTTTTAC,0.171
20,ATCTTGGA,-0.115
21,ACTCTAGA,0.00903
22,CATGCCCA,-0.213
23,ACGAAAGG,-0.092
24,CCCTAATC,-0.0442
25,GCGGCCGC,0.114

row,Sequence,PBM E-score
1,ACACTCAT,-0.112
2,ACGAAGTC,-0.264
3,AGCGTGTG,-0.0283
4,CAACGACG,-0.261
5,ATAAACGA,0.0133
6,CTGAATCA,-0.223
7,GCATGGAC,-0.0106
8,CAGACCGG,0.14
9,CGAGACAC,0.134
10,AGGCCAAC,0.0393
11,GTTGTTTA,-0.176
12,CTGAATGA,-0.0923
13,AAAGCCGT,0.132
14,GCACGGGC,0.0264
15,ATCTTTTA,-0.123
16,ACGGTCGA,-0.00879
17,CGCATGCG,-0.0121
18,AACCGTTG,-0.245
19,CGTGGACA,-0.063
20,ACAGGGCC,0.0444
21,CTACAGCC,-0.0644
22,CTAGGAAC,-0.00703
23,AAAACTGC,-0.147
24,AACGTAAA,-0.0553
25,ATAGGTCC,0.00769

row,Sequence,PBM E-score
1,ATGATGTG,-0.0463
2,AGATTTTC,-0.0721
3,CGTCAGAC,0.0382
4,CACGGCAG,0.137
5,AACGGCGC,-0.114
6,GTCTTTTA,-0.112
7,CGTCCGAA,0.336
8,ACGCGTCT,-0.252
9,GACGTCAA,-0.249
10,AACCCTAA,0.0317
11,AGCCCCTG,-0.257
12,ATAGAAGG,-0.156
13,GCAAGTGC,-0.253
14,CTGCGCTC,-0.211
15,AGTGCCCG,0.0974
16,CGACGCAG,-0.0523
17,TCCCGTAA,0.148
18,AACTGCAC,-0.0632
19,AACAGCTG,-0.172
20,GCTGAAGA,-0.16
21,AGAGAAAG,-0.277
22,CAGCTACC,0.0203
23,ATTGCTCA,-0.00681
24,CAATCCGG,0.244
25,AGATTGTG,-0.134

row,Sequence,PBM E-score
1,ATTTGCTC,-0.0327
2,TCTCGACA,-0.142
3,CACCTAAC,0.114
4,CTGGTTTA,-0.149
5,GCTTTCGA,-0.171
6,AGTACACA,0.0187
7,CCACTTCG,0.188
8,CAACTGTA,-0.0781
9,ATGTCAGG,-0.0873
10,CCCGAGGA,0.388
11,ATTGTTTC,0.168
12,GCTCCCAC,-0.0956
13,AGCTGCCA,-0.13
14,CAAACTAC,-0.279
15,CGTTCCGC,0.412
16,CCAGATCG,0.0771
17,CCCACTTA,-0.205
18,CGCAACAG,-0.121
19,ATTTTCAA,0.133
20,ACATAGAA,-0.0215
21,CAGCGGAC,-0.0345
22,AAGACAAA,-0.252
23,CACTAAAG,-0.177
24,CTTTGATC,0.0214
25,TAAAGGTA,-0.0791

row,Sequence,PBM E-score
1,ATACCTCA,-0.174
2,ATTACAAC,-0.0654
3,CTGGATTC,-0.0742
4,CAGCCCTG,-0.25
5,ACTTCCTC,-0.0216
6,CGCTTGAA,0.0222
7,CAATCCCA,-0.0535
8,ATACATGG,-0.159
9,ATTAATGA,0.125
10,ACGTGAGG,0.0587
11,ATCAGAGG,-0.212
12,AAACAATC,-0.0819
13,AAGTCGGC,0.22
14,AATTTACG,0.136
15,ACCAGTCG,0.214
16,ATCGTGTC,0.113
17,CAGAGAAA,-0.173
18,AGGCGAAT,-0.189
19,GGTACGAA,-0.0112
20,GCTCACAC,-0.133
21,ATGCTGGG,-0.021
22,GAGATGCA,-0.126
23,CTTTGATA,-0.072
24,AGGAGGAG,-0.176
25,CGGTGTTC,0.121

row,Sequence,PBM E-score
1,AAAGCCCC,-0.0774
2,CAAAAGAA,-0.176
3,CTCTGTGC,-0.0218
4,CCATGCTC,-0.148
5,CTTGTCTC,0.0628
6,CAAGATTA,-0.0362
7,CAAAGCAG,-0.142
8,AGGGGCGC,-0.0191
9,AAACTTTC,0.0709
10,AAGGAGCC,0.0359
11,ACAGGCGT,-0.255
12,ACTTATAT,0.127
13,ATCTTTAA,0.0682
14,AGGGTCGG,0.314
15,CGGGTATA,0.418
16,AGAGCACT,0.00445
17,CCCTTGCG,-0.289
18,TATACCCA,0.0355
19,ATGCGTAA,-0.169
